Assay results taken from PubChem BioAssay AID1345083 (National Center for Advancing Translational Sciences (NCATS), 2018).
Screen size: about 94,000 compounds; about 6,200 (6.6%) were called active. The inconclusive results got no clear call from the source; some entries with a clear call stand among them for comparison. Calls come from the whole dose curve; as a rule, active = well fitted inhibition curve with a large enough effect; inconclusive = small, poorly fitted or top-dose-only effect; inactive = flat fitted curve, though single readings scatter. A potency beside an inconclusive call is a rough fit, not a confirmed value.

Experiment: Cytotoxic Profiling in HEK 293 Cell Line of Diverse Libraries Using Quantitative High-Throughput Screening; note: nearly all actives have a fitted effect of over 60% in size
Details: HEK 293 viability, ATP luminescence (CellTiter-Glo), 48-72 h; activity change, negative = cytotoxicity: at 115 µM (top of the series) unless noted; series mostly up to 115 µM
Procedure, shortened: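 250 HEK 293 cells/well; compound by pintool; incubated 48 or 72 hr at 37 degree Celsius; CellTiter-Glo added, 10 min RT, luminescence imaged.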
% is set by controls: 0 for no effect and ±100 for the full control effect; potency is the fitted concentration of half-maximal effect; tags give direction and shape of the fitted curve.

Row | SMILES | Potency | activity change, negative = cytotoxicity | outcome
1 | CCC1Oc2ccc(NC(=O)c3ccccc3)cc2CN(Cc2cc(F)cc(F)c2)C1=O (centres undefined) | active: 14.1 µM | – | –
2 | COc1ccc(-c2ccc(C(=O)Nc3cccc(C(F)(F)F)c3)cc2)nn1 | inconclusive: 10 µM [inhibitor, full curve, poor fit] | – | –
3 | COCCN1C(=O)c2cccn2CC1CNC(=O)c1cc(-c2ccc(F)cc2)n[nH]1 (centres undefined) | – | inactive: -23.5% | –
4 | COc1ccccc1-c1cc2c(nc1-c1ccccc1)nc(C(=O)NCCN(C)C)n2C | inconclusive: 70.8 µM [inhibitor, partial curve, poor fit] | – | –
5 | O=C1CCN(C(=O)c2ccc3ccccc3n2)CCOCCN1 | – | – | inactive
6 | COc1ccc(-c2nc(N3CCOC[C@H]3C)cc3c2CN(C(C)C)C3=O)cc1 | active: 112 µM | – | –
7 | Cc1ccccc1NC(=O)N1CCc2c(c3cc(F)ccc3n2C)C1 | inconclusive: 89.1 µM [inhibitor, single point] | – | –
8 | O=[S+]1([O-])c2cccnc2O[C@@H](COCc2ccccc2)CN1Cc1ccc2c(c1)OCO2 | inconclusive: 22.4 µM [inhibitor, partial curve] | – | –
9 | CN(CCc1ccccc1)C(=O)CCC1CCN(c2cc(NC3CC3)ncn2)CC1 | active: 35.5 µM | – | –
10 | O=C(NC1CCCCC1)c1nn(CCOc2ccccc2)c2c1CNCC2 | inconclusive: 56.2 µM [inhibitor, partial curve, poor fit] | – | –
11 | O=C(c1ccccn1)N1CCC2(CC1)NC(=O)N(Cc1ccccc1Cl)C2=O | – | inactive: -0.772% | –
12 | COc1ccc(C(=O)N[C@@H]2CCC[C@@H]2C(=O)N2CCN(c3cc(C)ccc3C)CC2)cn1 | – | – | inactive
13 | Cc1nn(-c2ccccc2)c2c1C(C(C)C)N(C1CCCN(C(=O)c3ccc(C(F)(F)F)cc3)C1)C2=O (centres undefined) | inconclusive: 31.6 µM [inhibitor, full curve, poor fit] | – | –
14 | Cc1ccccc1C(=O)N1CCC(N2C(=O)CCC2C(=O)NC(C)C)CC1 (centres undefined) | – | inactive: -0.86% | –
15 | Cc1cccc(CN2C[C@@H](F)[C@@H](OCc3nc4ccccc4[nH]3)C2)n1 | inconclusive: 126 µM [inhibitor, single point] | – | –
16 | O=C(C1CCC1)N1CCC2(CC1)CC(N(Cc1ccc(F)cc1)C1CC1)CCO2 (centres undefined) | inconclusive: 44.7 µM [inhibitor, partial curve, poor fit] | – | –
17 | O=C(NC1C[C@H]2CC[C@@H](C1)N2C(=O)Cc1ccccc1Cl)c1ccncc1 (some centres undefined) | inconclusive: 56.2 µM [inhibitor, partial curve, poor fit] | – | –
18 | COc1ccc2[nH]c3c(c2c1)CCNC31CCN(C(=O)c2ccc(C)nc2)CC1 | active: 79.4 µM | – | –
19 | Cc1nc(C)c(C(=O)N2CCCC(COc3ccccc3C(=O)N3CCOCC3)C2)s1 (centres undefined) | – | inactive: 1.58% | –
20 | O=C1CC(c2noc(COc3ccc(Cl)cc3)n2)CN1C1CCCCC1 (centres undefined) | inconclusive: 50.1 µM [inhibitor, partial curve, poor fit] | – | –
21 | C=CCNC(=O)[C@@H]1CCCN1[C@@H](C(=O)NC)c1ccccc1F | – | inactive: -2.9% [at 172 µM] | –
22 | O=C(Nc1cc(F)ccc1Cl)c1cc2n(n1)CC(c1ccc(Br)cc1)OC2 (centres undefined) | inconclusive: 39.8 µM [inhibitor, full curve, poor fit] | – | –

Row | SMILES | Potency | activity change, negative = cytotoxicity | outcome
23 | COCCc1nncn1C1CCN(S(=O)(=O)c2ccc(F)c(C)c2)CC1 | – | inactive: 5.38% | –
24 | CN(C)c1ccc(CN2Cc3[nH]cnc3C[C@H]2c2nc(-c3ccncc3)no2)cc1 | – | inactive: -25.8% [at 172 µM] | –
25 | COc1ccc(CCNC(=O)C2CCCN2C(=O)c2cccc(-c3ccccc3OC)c2)cc1 (centres undefined) | inconclusive: 50.1 µM [inhibitor, partial curve, poor fit] | – | –
26 | O=C(NC1CCN(c2cc(-c3ccc(F)cc3)[nH]n2)CC1)c1c[nH]c2ccccc12 | inconclusive: 35.5 µM [inhibitor, partial curve, poor fit] | – | –
27 | O=C(c1nc(-c2ccc(F)cc2)c2cnccn12)N1CCN(c2ncccn2)CC1 | inconclusive: 89.1 µM [inhibitor, single point] | – | –
28 | CCN(CC)Cc1cnc2c(C(=O)NCc3cnn4cccnc34)cnn2c1 | – | inactive: -2.41% | –
29 | O=C(c1ccc(N2CCC(CO)C2)nc1)N1CCC(N2CCOCC2)CC1 (centres undefined) | – | inactive: 3.23% | –
30 | O=C(NCc1cc(F)ccc1F)C1CN(S(=O)(=O)c2cccnc2)CC12CCCCC2 (centres undefined) | – | inactive: -24.9% | –
31 | CN1C(=O)[C@@H]2C[C@@H](CN2Cc2ccc3ccccc3n2)Oc2ccccc21 | inconclusive: 31.6 µM [inhibitor, partial curve, poor fit] | – | –
32 | Cc1ccc(CN2CCCCCCNC(=O)[C@@H]3C[C@@H](C(=O)N4CCN(c5ccccn5)CC4)C[C@@H]32)o1 | inconclusive: 56.2 µM [inhibitor, partial curve, poor fit] | – | –
33 | O=C(CCc1ccccc1)N1CCCC(CN2CCCC2)CC1 (centres undefined) | – | inactive: -21% | –
34 | O=C(NCC(F)F)C1CCN(c2nccc(Nc3ccccc3Cl)n2)CC1 | inconclusive: 50.1 µM [inhibitor, partial curve, poor fit] | – | –
35 | COc1ncccc1-c1cnc2[nH]cc(CC(=O)Nc3cccc(Cl)c3)c2c1 | active: 31.6 µM | – | –
36 | Cc1n[nH]c(C)c1CCCN(C)c1cc(C2CC(N)C2)nc(N)n1 (centres undefined) | inconclusive: 8.91 µM [inhibitor, full curve, poor fit] | – | –
37 | O=C(c1ccc(F)cc1)N1CCCC(c2nn(-c3cccc(Cl)c3)c(=O)[nH]2)C1 (centres undefined) | inconclusive: 56.2 µM [inhibitor, partial curve, poor fit] | – | –
38 | O=C(NCc1cccnc1)c1nc(-c2ccc(Cl)cc2Cl)c2cnccn12 | inconclusive: 79.4 µM [inhibitor, partial curve, poor fit] | – | –
39 | COCCOC1CN(C2CCN(Cc3ccccc3)CC2)C12CCCCC2 (centres undefined) | – | inactive: -30% | –
40 | COc1ccc([S+](=O)([O-])N2CCC3(CC2)OCCN(c2ccc(F)cc2)C3=O)cc1 | inconclusive: 50.1 µM [inhibitor, full curve] | – | –
41 | Cc1ccc(C)c(NC(=O)N2C[C@H](c3nc(-c4ccncc4)no3)[C@@H](C)C2)c1 | inconclusive: 56.2 µM [inhibitor, partial curve, poor fit] | – | –
42 | COC[C@@H]1CCCN1CCC(=O)Nc1ccc(C(=O)OC)cc1 | – | inactive: -3.14% | –
43 | O=C(NCc1ccc(Cl)cc1)c1nc2sccn2c1-c1cccc(C(F)(F)F)c1 | inconclusive: 50.1 µM [inhibitor, partial curve, poor fit] | – | –
44 | CC(=O)N1CCC2(CC1)C(=O)NN=C2C1CC1 | – | inactive: -10.3% [at 230 µM] | –

Row | SMILES | Potency | activity change, negative = cytotoxicity | outcome
45 | COc1ccccc1CC(=O)N[C@@H]1CN(c2ncccn2)C[C@H]1CN(C)C | – | inactive: 1.14% | –
46 | O=C(NCC1CC1)c1ccc2nnc(-c3ccc(Cl)cc3Cl)n2c1 | inconclusive: 50.1 µM [inhibitor, partial curve, poor fit] | – | –
47 | CN(C)c1cccc(NC(=O)c2ccc3c(c2)NC(C)(COc2cccnc2)CO3)c1 (centres undefined) | inconclusive: 56.2 µM [inhibitor, partial curve, poor fit] | – | –
48 | C[C@@H]1C(=O)O[C@H]2[C@H]1CC[C@@]1(C)Cc3sc(NC(=O)c4ccc(F)c(Cl)c4)nc3[C@@H](C)[C@H]21 | inconclusive: 35.5 µM [inhibitor, full curve] | – | –
49 | COc1cccc(CN2CC(O)CN(S(C)(=O)=O)CC2=O)c1OC (centres undefined) | – | inactive: -15.1% | –
50 | O=C(NCc1cnccn1)c1ccc(-c2ncc3cnc(-c4cccc(F)c4)cn23)cc1 | inconclusive: 89.1 µM [inhibitor, partial curve, poor fit] | – | –
51 | Fc1ccc2nc(CO[C@H]3CN(Cc4ccc5ccccc5n4)C[C@H]3F)[nH]c2c1 | active: 89.1 µM | – | –
52 | COc1cccc([S+](=O)([O-])N2CC(Oc3ccc(F)cc3F)C2)c1 | – | inactive: -14.3% | –
53 | O=C(c1ccc(Cl)cc1)N1CCn2c(nn(-c3cccc(Cl)c3)c2=O)C1 | inconclusive: 79.4 µM [inhibitor, partial curve] | – | –
54 | COc1ccccc1-c1cccc(CN2CCCC(C(=O)NC3CC3)C2)c1 (centres undefined) | inconclusive: 50.1 µM [inhibitor, partial curve, poor fit] | – | –
55 | CCn1cc2c3c(cccc31)CN(C(=O)c1ccc(OC)cc1)CC2 | inconclusive: 50.1 µM [inhibitor, partial curve, poor fit] | – | –
56 | CCOC(=O)C1(Cc2ccccc2Cl)CCN(Cc2cccnc2)CC1 | inconclusive: 22.4 µM [inhibitor, full curve, poor fit] | – | –
57 | C#CCNC(=O)c1cn2cc(-c3ccc(F)cc3)sc2n1 | inconclusive: 100 µM [inhibitor, partial curve, poor fit] | – | –
58 | O=C(Cn1cccc1-c1nc(-c2ccccc2)no1)NCc1ccc(F)cc1 | inconclusive: 44.7 µM [inhibitor, partial curve, poor fit] | – | –
59 | CC(C)CC(=O)N1CCCC(c2noc(COc3ccccc3)n2)C1 (centres undefined) | inconclusive: 44.7 µM [inhibitor, partial curve] | – | –
60 | CCOc1ccccc1CNC(=O)C1CCN(c2cc(C(F)(F)F)nc(C)n2)CC1 | inconclusive: 79.4 µM [inhibitor, partial curve, poor fit] | – | –
61 | CCC#CCN1CCc2ccccc2N(CC(O)COc2ccc(OC)cc2)CCC1=O (centres undefined) | inconclusive: 35.5 µM [inhibitor, partial curve, poor fit] | – | –
62 | CCc1nc2c(c(-c3ccc(O)cc3)n1)CCN(C(=O)Nc1ccc(Cl)cc1)CC2 | inconclusive: 79.4 µM [inhibitor, single point] | – | –
63 | CN1CC(=O)N(c2ccccc2F)Cc2c(NCCc3ccccc3F)ncnc21 | inconclusive: 89.1 µM [inhibitor, single point] | – | –
64 | O=C(NCc1ccco1)C1CN(S(=O)(=O)c2cccs2)CC12CCCCC2 (centres undefined) | inconclusive: 50.1 µM [inhibitor, partial curve, poor fit] | – | –
